# In all, about 33,000 sequences were measured (“E-score (-0.5 to 0.5)”: median about -0.016, highest 2% from about 0.32 on). The list shows a part of the results.
# Biological target: T1, Stp1 (UniProt B3LFK1)
# T1 sequence: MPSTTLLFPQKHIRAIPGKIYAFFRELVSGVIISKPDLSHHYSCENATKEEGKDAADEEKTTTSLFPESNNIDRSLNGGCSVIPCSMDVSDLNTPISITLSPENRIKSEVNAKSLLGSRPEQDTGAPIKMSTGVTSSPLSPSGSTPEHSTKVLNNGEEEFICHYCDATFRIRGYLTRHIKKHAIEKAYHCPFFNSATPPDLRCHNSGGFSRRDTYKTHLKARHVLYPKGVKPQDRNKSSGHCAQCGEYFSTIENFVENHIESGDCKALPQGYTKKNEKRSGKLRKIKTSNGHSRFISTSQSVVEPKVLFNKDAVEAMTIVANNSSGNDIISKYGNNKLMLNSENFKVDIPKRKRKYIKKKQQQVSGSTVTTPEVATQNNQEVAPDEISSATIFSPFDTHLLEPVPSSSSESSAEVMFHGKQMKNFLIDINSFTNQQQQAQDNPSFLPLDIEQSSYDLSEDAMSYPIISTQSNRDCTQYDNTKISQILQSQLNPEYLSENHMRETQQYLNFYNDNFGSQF
# Assay: PBM E-score (8-mer binding enrichment) (E-score (-0.5 to 0.5)); higher = stronger / more preferred TF binding; most listed sequences are background and not binding sites
# Details: protein concentration: 200 nM; construct: GST-full length
# Outline: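 Full-length yeast transcription factors or their DNA-binding domains, GST-tagged and expressed with PURExpress, were applied at about 100-200 nM to universal all-10-mer Agilent arrays. These arrays had been made double-stranded by primer extension on fresh or once-stripped slides. Detection used fluorescent anti-GST, normalisation used masliner, and E-scores for ungapped eight-base words pooled with reverse complements came from the Universal PBM Analysis Suite.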
row,Sequence,PBM E-score
1,ATGCTATA,-0.0011
2,AACACGTT,0.024
3,GCAATAGA,0.0181
4,TCTGCAAA,0.0405
5,AGCGCCGA,0.321
6,AGAGCCTA,-0.0545
7,GTACATAC,-0.00141
8,ATCACAAC,0.112
9,ACGAAAAG,0.169
10,CAACTGAC,-0.0279
11,GAAAAAGC,0.0911
12,GCTCCACA,-0.0368
13,CGTCTGAC,0.047
14,CTAGTGAG,0.0162
15,CTTAACTA,0.109
16,ATCTTAAG,0.0798
17,AATAGGGC,0.181
18,ACTTTCAT,-0.0308
19,AACGCCCC,0.213
20,ATCAGAAA,0.0189
21,ATTCTCAG,-0.0695
22,TGTAACAA,0.0601
23,CAGGTGGA,-0.0677
24,AGTTCTCG,-0.0106
25,AATATCAC,0.102

row,Sequence,PBM E-score
1,CAGCGACC,-0.0884
2,AAGTCAAC,-0.131
3,CCTCATTA,0.102
4,TCGCCAAA,-0.178
5,ATTTGCTG,0.188
6,GGAGGCGA,0.0142
7,AATCCTTG,-0.0225
8,AAAGGCAT,0.305
9,CTGCGATC,-0.0846
10,AGCTGAGC,-0.0204
11,CAAGCGGA,-0.0234
12,GAGCCCCC,-0.4
13,CCTTGCTA,0.091
14,ATCTTAAA,-0.0445
15,ACGGCTCT,0.454
16,ATCCCCGA,-0.354
17,CAATAAGA,0.082
18,ATACTTCA,0.00247
19,CCCGTCAC,-0.328
20,ATCGATGC,0.203
21,AGAAGCCA,0.145
22,ATGAGGAG,-0.0141
23,AGTATCAC,0.132
24,GATCTTCC,-0.171
25,AATCACGG,0.215

row,Sequence,PBM E-score
1,GCATTTCC,0.146
2,GTCCAGGA,-0.179
3,TTCACCAA,0.204
4,CTTAATGA,-0.0422
5,CCGACTAG,-0.135
6,AAATTTAT,0.176
7,AGCGGCAT,0.406
8,GACGATAA,-0.102
9,CACTATGC,0.0415
10,AGAATCGC,0.125
11,AACACTAC,-0.0164
12,CGGCACAG,0.398
13,GAGATTTA,0.0469
14,GTCGTACA,-0.0298
15,CCACACGG,0.385
16,ATGCGGAA,0.164
17,GGATTGAC,0.08
18,ACTTAATA,0.0715
19,AGCCGTGC,0.465
20,CAAAGCTA,0.0274
21,ACGCCAAA,-0.00017
22,CCGCGAAA,0.102
23,AAGATTAC,-0.0171
24,GCGATAGA,-0.0418
25,ACCTGAGG,-0.252

row,Sequence,PBM E-score
1,AAGTATCA,0.144
2,ATCGTTGG,0.0123
3,AGGTGGTC,-0.293
4,ATATGCAC,0.0296
5,GTTACCCA,-0.248
6,GATCGGAC,-0.0767
7,GCCTGGAA,-0.133
8,ACATGTAG,-0.0259
9,CAAACCAA,0.0979
10,ATATAGCA,-0.0841
11,GCTACACC,-0.0559
12,ACACGCGG,0.221
13,CGATAACA,0.00285
14,AAACTGCC,0.185
15,AGTACAAA,0.0306
16,CGGCGATA,0.395
17,CGTTCAGA,-0.0226
18,CAACACTG,-0.00558
19,CGCTACCC,-0.301
20,ACTGATAT,0.205
21,AGCTAACC,-0.159
22,AAGCATGG,-0.206
23,ACACAAAT,0.248
24,AACACGAG,-0.0176
25,CCGCAGAG,-0.124

row,Sequence,PBM E-score
1,ATGATGCA,0.0889
2,ATTGCATA,0.189
3,TCCGAGAA,0.18
4,GAATGACA,-0.15
5,AATAGCGT,0.175
6,AGGCGGTA,-0.0932
7,CGAGCTCA,-0.0314
8,CAGGTAAG,-0.148
9,GTAAGCGA,0.0187
10,CCATAAAC,0.102
11,CATACACG,0.13
12,CTGCAGGA,-0.0388
13,AGGTCGAA,-0.00966
14,AGACGCGC,0.0493
15,CCAGGCGG,-0.0554
16,CGACCCGA,-0.312
17,AAGAATGT,0.0361
18,GGGTGGCA,-0.121
19,GGTCCCAC,-0.302
20,CCCTTTCA,-0.15
21,GTGGCCTA,-0.279
22,ATGGGGTG,0.0671
23,GGTTACGA,-0.0716
24,CTAATCAA,0.0583
25,CGTCTAAC,0.119

row,Sequence,PBM E-score
1,AGGACGCC,0.117
2,ATTAAGGC,0.196
3,CACTTTAC,-0.00726
4,CAGCGAAA,-0.0495
5,CCGTATCA,0.327
6,TTGATAAA,0.294
7,ATAACGGG,-0.184
8,GACAAGTC,-0.147
9,ATGAATCA,0.077
10,CACGGGGA,0.0435
11,ATTACAAG,0.0576
12,GCTAATAC,0.0596
13,CTCTTCCA,-0.0123
14,ACATTATA,0.0327
15,CACATCTG,-0.182
16,CCTTCGTA,0.0218
17,CTTTCGGC,-0.12
18,TAAGCTAA,0.147
19,AGTACGGG,-0.156
20,AATCGCAA,0.165
21,CTGTTTAA,0.141
22,ATACCGGC,0.0769
23,GTACCGAC,-0.0501
24,AGAACTCT,-0.157
25,CGATAGTC,-0.0162

row,Sequence,PBM E-score
1,CGTGGCAA,0.153
2,TCATTTAA,-0.00121
3,CCACACCA,0.077
4,AGGCACCG,0.272
5,GAGAGGCA,0.208
6,TCTGGTAA,0.0972
7,ATGGATAC,-0.0697
8,AAACAAAG,0.129
9,GTCGCCAC,0.0471
10,AAGTAAAC,-0.152
11,ATGGTTAC,0.0165
12,CGCCACCA,-0.0579
13,GCGTAACC,-0.0384
14,CATATAGC,0.0314
15,CCGTTGAA,0.0716
16,CAGAATCC,-0.075
17,TATAACGA,0.0337
18,ATCGGCTA,-0.108
19,CCCACCTA,-0.103
20,ACGAGTGC,0.09
21,ACTAAACC,-0.0625
22,GGCAATTA,0.158
